Changes are numbered by the printed parent chain.
B1: N3-1: improved N3 antibody; HC SEQ ID NO: 89, LC SEQ ID NO: 107 (protein)
chain 1: EVQLLESGGGLVQPGGSLRLSCAASGFTFSSYDMSWVRQAPGKGLEWVSAISYDNGNTYYADSVKGRFTISRDNSKNTLYLQMNSLRAEDTAVYYSARMALDFDYWGQGTLVTVSS[human IgG1 constant region not shown]
chain 2: QSVLTQPPSASGTPGQRVTISCTGSSSNIGSNYVTWYQQLPGTAPKLLIYDNSNRPSGVPDRFSGSKSGTSASLAISGLQSEDEADYYCASFSDELGAYVFGGGTKLTVLRTVAAPSVFIFPPSDEQLKSGTASVVCLLNNFYPREAKVQWKVDNALQSGNSQESVTEQDSKDSTYSLSSTLTLSKADYEKHKVYACEVTHQGLSSPVTKSFNRGEC
B2: N3-8-6: N3-8 derivative antibody; HC SEQ ID NO: 105, LC SEQ ID NO: 115 (antibody)
heavy: B1 chain 1 with Y53P, D54Y, N55S, N57R, T58I, S96C, M99L
light: QSVLTQPPSASGTPGQRVTISCTGSSSNIGSNYVTWYQQLPGTAPKLLIYRNNQRPSGVPDRFSGSKSGTSASLAISGLQSEDEADYYCSSFSDELGAYVFGGGTKLTVLGQPKAAPSVTLFPPSSEELQANKATLVCLISDFYPGAVTVAWKADSSPVKAGVETTTPSKQSNNKYAASSYLSLTPEQWKSHRSYSCQVTHEGSTVEKTVAPTECS
modifications: IgG heavy chain 7; IgG light chain 5
B3: N3-8-2: N3-8 derivative antibody; HC SEQ ID NO: 103, LC SEQ ID NO: 113 (antibody)
heavy: B1 chain 1 with Y53P, D54Y, N55S, N57R, T58I, S96C
light: B2 light with R51S
modifications: IgG heavy chain 6; IgG light chain 4
B4: N3-8-4: N3-8 derivative antibody; HC SEQ ID NO: 105, LC SEQ ID NO: 111 (antibody)
heavy: B1 chain 1 with Y53P, D54Y, N55S, N57R, T58I, S96C, M99L
light: B2 light with R51D, N53S, Q54N
modifications: IgG heavy chain 7; IgG light chain 3
B5: N3-8-3: N3-8 derivative antibody; HC SEQ ID NO: 103, LC SEQ ID NO: 115 (antibody)
heavy: B1 chain 1 with Y53P, D54Y, N55S, N57R, T58I, S96C
light: B2 light
modifications: IgG heavy chain 6; IgG light chain 5
B6: N3-8-5: N3-8 derivative antibody; HC SEQ ID NO: 105, LC SEQ ID NO: 113 (antibody)
heavy: B1 chain 1 with Y53P, D54Y, N55S, N57R, T58I, S96C, M99L
light: B2 light with R51S
modifications: IgG heavy chain 7; IgG light chain 4
B7: N3-8-1: N3-8 derivative antibody; HC SEQ ID NO: 103, LC SEQ ID NO: 111 (antibody)
heavy: B1 chain 1 with Y53P, D54Y, N55S, N57R, T58I, S96C
light: B2 light with R51D, N53S, Q54N
modifications: IgG heavy chain 6; IgG light chain 3

What was measured:
KRS fragment (1-207 aa) = biological target: T1, KRS fragment (1-207 aa) (Homo sapiens, UniProt Q15046); assay: SPR with KRS fragment (1-207 aa) purified protein; format: binding; settings: Biacore T200, 25° C., antibody immobilized, antigen 4.8 nM-1250 nM
T1 construct: Using KRS fragment (1-207 aa) purified protein as an antigen
Protocol: There was no significant difference in binding ability between KRS and the improved antibodies, N3-1, N3-3, N3-4, and N3-5. Thus, using the representative N3-1 IgG antibody among the improved antibodies selected in the Example 8-2, the affinity of the parent antibody, N3 antibody and KRS N-terminus was more specifically compared. Using KRS fragment (1-207 aa) purified protein as an antigen, the binding ability between N3 antibody and N3-1 antibody (IgG) was analyzed through Surface Plasmon Resonance (SPR). The SPR experiment was performed using a Biacore T200 (GE Healthcare) equipped with a Series S sensor chip CM5 (GE Healthcare) at 25° C. After the antibody was immobilized on the chip using an amine coupling kit (GE Healthcare), the antigen was diluted 4 times in PBS solution in the range of 4.8 nM-1250 nM and flowed for 60 seconds. Thereafter, PBS was flowed for 300 seconds. The obtained data was analyzed with Biacore T200 Evaluation software v2.0 (GE Healthcare).

[1] = Thermal stability, Protein thermal shift Dye kit; format: physicochemical; settings: antibody 1 mg/ml; for Thermal stability Tm1: 100 μl; for Thermal stability Tm2: ‘—’ refers to the same value as Tm1
Protocol: In addition, the thermal stability of the antibody was measured using 100 μl of the purified antibodies at a concentration of 1 mg/ml. Protein thermal shift Dye kit (Thermofisher) was performed 4 times with Quant Studio 3 Real-time PCR equipment (Thermofisher).

T1 sequence (Q15046 1-207): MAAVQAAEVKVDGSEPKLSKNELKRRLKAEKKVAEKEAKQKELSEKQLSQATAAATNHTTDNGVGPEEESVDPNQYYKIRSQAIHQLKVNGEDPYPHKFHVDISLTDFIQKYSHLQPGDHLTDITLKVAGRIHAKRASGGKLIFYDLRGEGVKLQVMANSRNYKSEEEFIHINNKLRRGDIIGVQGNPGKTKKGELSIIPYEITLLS

| Kd (KRS fragment (1-207 aa)) | Molecule | Thermal stability Tm1 [1] | Thermal stability Tm2 [1] |
| --- | --- | --- | --- |
| 31 nM | B1 | – | – |
| – | B2 | 71.0 | 76.97 |
| – | B3 | 72.41 | – |
| – | B4 | 70.31 | – |
| – | B5 | 71.02 | 76.31 |
| – | B6 | 72.9 | – |
| – | B7 | 69.94 | – |

From patent US11965038B2, “Pharmaceutical composition comprising antibody binding specifically to lysyl-tRNA synthetase N-terminus as effective ingredient for preventing or treating immune cell migration-related disease” (Zymedi Co., Ltd., priority 2017, dated 2024)
